# Measurements as given in the supplement of paper PMC12067230.
# Single values of this set are uncertain.
# Assay: amyloid nucleation score relative to library mode (yeast Sup35 reporter selection) (log enrichment difference); higher = more amyloid nucleation; sequences are the first 22 residues of the Bri2 peptide extended by up to 12 random residues
# Conditions: random library (experiment): 1;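 active = nucleation score significantly above 0 at FDR 0.05; inactive = not significantly above 0 or absent from output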
# 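Also: [psi-pin-] Saccharomyces cerevisiae expressing SupN fusions, induced by 100 µM Cu2SO4, selected 7 d at 30 °C without adenine and uracil, scored by deep sequencing of output versus input.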
row,Sequence,amyloid nucleation score
1,EASNCFAIRHFENKFAVETLICKLQWYGSPWKVR,-0.029
2,EASNCFAIRHFENKFAVETLICVFTRICVSHNLW,inactive
3,EASNCFAIRHFENKFAVETLICLVNVNTFYRRWL,5.06
4,EASNCFAIRHFENKFAVETLICDMYHWNLMAWMA,inactive
5,EASNCFAIRHFENKFAVETLICRLAKANRRELSA,inactive
6,EASNCFAIRHFENKFAVETLICLVCTGVLTLQWQ,5.9
7,EASNCFAIRHFENKFAVETLICARLAVPSAGDGL,inactive
8,EASNCFAIRHFENKFAVETLICVLLRASNTEIGL,inactive
9,EASNCFAIRHFENKFAVETLICANRVKWRNYCVV,inactive
10,EASNCFAIRHFENKFAVETLICPYVSEVRMALFG,3.89
11,EASNCFAIRHFENKFAVETLICMSTCWWRYQASL,inactive
12,EASNCFAIRHFENKFAVETLICFSGGSLVSASVR,0.664
13,EASNCFAIRHFENKFAVETLICFFRVGRWVPQAG,inactive
14,EASNCFAIRHFENKFAVETLICIPSGNMFLLREA,4.85
15,EASNCFAIRHFENKFAVETLICRLLLPEPVGGAG,inactive
16,EASNCFAIRHFENKFAVETLICNSAQ,inactive
17,EASNCFAIRHFENKFAVETLICRTMQLQGADQRG,inactive
18,EASNCFAIRHFENKFAVETLICFQRSE,1.75
19,EASNCFAIRHFENKFAVETLICKMMSPQAFPVDS,0.655
20,EASNCFAIRHFENKFAVETLICVGAEV,inactive

row,Sequence,amyloid nucleation score
1,EASNCFAIRHFENKFAVETLICVWT,inactive
2,EASNCFAIRHFENKFAVETLICVDWGKM,3.12
3,EASNCFAIRHFENKFAVETLICGASS,inactive
4,EASNCFAIRHFENKFAVETLICRLARRQVYQVLR,inactive
5,EASNCFAIRHFENKFAVETLICRRER,inactive
6,EASNCFAIRHFENKFAVETLICARRRVVACRRAE,inactive
7,EASNCFAIRHFENKFAVETLICLMRWSRTVACVG,inactive
8,EASNCFAIRHFENKFAVETLICTDCTAL,inactive
9,EASNCFAIRHFENKFAVETLICWMVHEHSVRA,inactive
10,EASNCFAIRHFENKFAVETLICREAKVLSLGGAR,4.34
11,EASNCFAIRHFENKFAVETLICVRPWCSCLRALE,inactive
12,EASNCFAIRHFENKFAVETLICAEVKCNARFCTW,inactive
13,EASNCFAIRHFENKFAVETLICNVDCSLDKVWMY,inactive
14,EASNCFAIRHFENKFAVETLICVMERKCSLRSLE,inactive
15,EASNCFAIRHFENKFAVETLICQFRRGKTPQGCG,-0.203
16,EASNCFAIRHFENKFAVETLICLPPSFMC,8.53
17,EASNCFAIRHFENKFAVETLICTR,1.67
18,EASNCFAIRHFENKFAVETLICFVCGSVCIVGIG,inactive
19,EASNCFAIRHFENKFAVETLICGCEISATHWLNR,4.65
20,EASNCFAIRHFENKFAVETLICVRRSRRGPCVCE,inactive

row,Sequence,amyloid nucleation score
1,EASNCFAIRHFENKFAVETLICHRRVAVRGMRLV,inactive
2,EASNCFAIRHFENKFAVETLICDGHVSWGTGVIR,inactive
3,EASNCFAIRHFENKFAVETLICHYWRSWTWLGL,inactive
4,EASNCFAIRHFENKFAVETLICRGVLIMVGEWW,-0.617
5,EASNCFAIRHFENKFAVETLICCVCLIQNPASTR,8.91
6,EASNCFAIRHFENKFAVETLICIAVRYFISVSRM,inactive
7,EASNCFAIRHFENKFAVETLICLGLWSGMGIVRW,inactive
8,EASNCFAIRHFENKFAVETLICVVPNALE,2.01
9,EASNCFAIRHFENKFAVETLICDTMWNF,4.87
10,EASNCFAIRHFENKFAVETLICRRVRTGEIKAWC,inactive
11,EASNCFAIRHFENKFAVETLICVMFWLM,inactive
12,EASNCFAIRHFENKFAVETLICFFWTTQCVCGWW,inactive
13,EASNCFAIRHFENKFAVETLICLVSAYVMYCLAP,1.01
14,EASNCFAIRHFENKFAVETLICCKVWKDIVGPGS,3.53
15,EASNCFAIRHFENKFAVETLICGAYAQPFTLFSR,inactive
16,EASNCFAIRHFENKFAVETLICLRLGLQGLLPPL,4.16
17,EASNCFAIRHFENKFAVETLICGEMRYARQRGP,0.00985
18,EASNCFAIRHFENKFAVETLICLSMTSMLSMWSC,inactive

# Same assay, conditions: random library (experiment): 2
row,Sequence,amyloid nucleation score
1,EASNCFAIRHFENKFAVETLICMYR,inactive
2,EASNCFAIRHFENKFAVETLICAIMWGKKILSVL,inactive
3,EASNCFAIRHFENKFAVETLICVYIVHGVRDYVS,inactive
4,EASNCFAIRHFENKFAVETLICFKNDLNPRHPCR,0.908
5,EASNCFAIRHFENKFAVETLICWGVCYIVMLS,inactive
6,EASNCFAIRHFENKFAVETLICFTRSMFLSFTN,inactive
7,EASNCFAIRHFENKFAVETLICWDLRRINVSVRT,inactive
8,EASNCFAIRHFENKFAVETLICRGQMIKENCRFR,inactive
9,EASNCFAIRHFENKFAVETLICGFN,inactive
10,EASNCFAIRHFENKFAVETLICMCLLTASVLSQG,inactive
11,EASNCFAIRHFENKFAVETLICDYRRRL,inactive
12,EASNCFAIRHFENKFAVETLICLYG,inactive
13,EASNCFAIRHFENKFAVETLICLNSRPGVRARAR,inactive
14,EASNCFAIRHFENKFAVETLICTELLGLLSVFSL,0.288
15,EASNCFAIRHFENKFAVETLICCLNFR,7.75
16,EASNCFAIRHFENKFAVETLICTGDVRVDSSRDY,4.69
17,EASNCFAIRHFENKFAVETLICHLASG,inactive
18,EASNCFAIRHFENKFAVETLICVMGFYRCLRVDD,inactive

row,Sequence,amyloid nucleation score
1,EASNCFAIRHFENKFAVETLICGCISEFERLYRE,inactive
2,EASNCFAIRHFENKFAVETLICKNMSSLFMVKA,inactive
3,EASNCFAIRHFENKFAVETLICLPIVNRLDTYGA,inactive
4,EASNCFAIRHFENKFAVETLICHAKFMWNCDLTK,2.78
5,EASNCFAIRHFENKFAVETLICVAGQKCYFFPVK,inactive
6,EASNCFAIRHFENKFAVETLICNRLIYRTMRVFY,-0.153
7,EASNCFAIRHFENKFAVETLICLRGDTRIKSV,inactive
8,EASNCFAIRHFENKFAVETLICIYAPFFNSCSRS,8.78
9,EASNCFAIRHFENKFAVETLICGWWNETNSVGLL,inactive
10,EASNCFAIRHFENKFAVETLICRRSVMGVQRL,5.83
11,EASNCFAIRHFENKFAVETLICLSVLKYG,6.3
12,EASNCFAIRHFENKFAVETLICALICFIYVVCRM,1.53
13,EASNCFAIRHFENKFAVETLICLNIFL,8.17
14,EASNCFAIRHFENKFAVETLICNGFRKSSRILRG,inactive
15,EASNCFAIRHFENKFAVETLICNRSRQGPSSGVW,1.7
16,EASNCFAIRHFENKFAVETLICDLRIWLVSVRGS,inactive
17,EASNCFAIRHFENKFAVETLICFTNRHYDHPHIL,3.64

# Same assay, conditions: random library (experiment): 3
row,Sequence,amyloid nucleation score
1,EASNCFAIRHFENKFAVETLICIVITEYKVWVPR,inactive
2,EASNCFAIRHFENKFAVETLICHAVHHSYFVVGR,inactive
3,EASNCFAIRHFENKFAVETLICMCHPQENVSQDH,8.69
4,EASNCFAIRHFENKFAVETLICAQHRSRCYRM,4.05
5,EASNCFAIRHFENKFAVETLICIVRMECCKFLVA,4.41
6,EASNCFAIRHFENKFAVETLICAFMAMNELNKGW,inactive
7,EASNCFAIRHFENKFAVETLICNGSYVLRTELCS,inactive
8,EASNCFAIRHFENKFAVETLICDKWFPGDPITAC,inactive
9,EASNCFAIRHFENKFAVETLICVVVLLGVDVRLC,inactive
10,EASNCFAIRHFENKFAVETLICTILSSFLSVNVS,1.15
11,EASNCFAIRHFENKFAVETLICGTVWGRIIGVRM,inactive
12,EASNCFAIRHFENKFAVETLICRWWCTSDEWWSL,inactive
13,EASNCFAIRHFENKFAVETLICCDADSVERCCKG,inactive
14,EASNCFAIRHFENKFAVETLICVADLRRRGLRRS,3.93
15,EASNCFAIRHFENKFAVETLICIPSNIWPQDTFY,4.7
16,EASNCFAIRHFENKFAVETLICTCPRRPYQFWNR,2.68
17,EASNCFAIRHFENKFAVETLICDDADRRFVFVLQ,0.177
18,EASNCFAIRHFENKFAVETLICGKSHESGMLNGW,inactive
19,EASNCFAIRHFENKFAVETLICHGWRRQGGGGDW,3.57
20,EASNCFAIRHFENKFAVETLICCLRDNHAIGSAW,7.06
21,EASNCFAIRHFENKFAVETLICRSHVTSACGKVL,0.0944
22,EASNCFAIRHFENKFAVETLICMYCLRHLSHTAQ,inactive
23,EASNCFAIRHFENKFAVETLICIETCATIVSSGL,inactive
24,EASNCFAIRHFENKFAVETLICLRCLV,1.66
25,EASNCFAIRHFENKFAVETLICVSDLRMCELMSA,inactive
26,EASNCFAIRHFENKFAVETLICFHHLVCV,inactive
